Data: publication PMC12136788
The other results are listed elsewhere or left out.

B1: chr8:80637648:80637749:-|3pUTR|ENSG00000164684|unk|total|mutant (ssRNA)
RNA: GGGAGUUCUACAGUCCGACGAUCUGCGCUCCGCUGCAAAGUGCCUGUCAGCAGCUCCAGGCACCAACAAGGUGCCCUUUUAUCCGACAAUUCCUGCCCGAACAUAACCAUAUUGCAGAUGAAAAUUUUCAACCGAGAAUGACACAACAGAGGAUUGAGCAUCA
B2: chr2:209733988:209734100:+|3pUTR|ENSG00000078018|unk|total|mutant (ssRNA)
RNA: GGGAGUUCUACAGUCCGACGAUCUCUGAUAAUUCCCGAGCCUGUUACCACCGAAAGGCAUUUCUUCAAUGGCUGGUUGCCGUCCGUUCAUGUUUUUCAAUCAAAUUUGCAAAUGUAUUUGUUGCUGUACCGUGAUUGUUUUGCCAACAGAGGAUUGAGCAUCA
B3: ENSG00000198589:be:win_8251|CDS|ENSG00000198589|bound_else_gene|NA|bound_elsewhere_windowed (ssRNA)
RNA: GGGAGUUCUACAGUCCGACGAUCCUCUUCUGUACAUUCAGUGUGAAUGGAAAACUCCAGGCCACGAUGGAAACAGAUGAUAACAUAAGAGCCAUCCAGCUGAGCCGAGAUGGGCAGUACCUGCUCACAGGAGGAGACAGAGGACAACAGAGGAUUGAGCAUCA
B4: ENSG00000107863:be:win_1951|CDS|ENSG00000107863|bound_else_gene|NA|bound_elsewhere_windowed (ssRNA)
RNA: GGGAGUUCUACAGUCCGACGAUCCCAGUAAAUCACUUGCAUCAGAACAGUCUGUUGAAUCAGCAGACAUGGGUAAGGACUGACAGUGCCCCCGAUCAGCAAGUGGAGACUGGGAAAUCCCCCUCUUUAUCUGGAGCCUCUGCCCAACAGAGGAUUGAGCAUCA
B5: chr15:73714018:73714119:+|3pUTR|ENSG00000103855|msi1|total|mutant (ssRNA)
RNA: GGGAGUUCUACAGUCCGACGAUCCCCACCCAUAAUUCUUACCCAGAGCAUGGGGUUGGGGCGGAAACCUGGAGAGAGGGACACCGCCCCUCGCCACGGCCCGAGAAUCUGGUGGUGUCCAAAAUGUCUGUCCAGGUGUGGGCACAACAGAGGAUUGAGCAUCA
B6: chr12:285015:285116:-|3pUTR|ENSG00000073614|msi1|total|mutant (ssRNA)
RNA: GGGAGUUCUACAGUCCGACGAUCUAACAGGGCAUACCGGAUGUGGCUUUUGUCCAGCUGACCGCCGUCCGAGGCUUACAACUCCGGAGCAGCACCAACUGAAGGUGCUAAUUGCUUGGAUCUCCUUCAUUGGGACCGUUGGAGCAACAGAGGAUUGAGCAUCA
B7: chr8:96333981:96334082:+|3pUTR|ENSG00000156471|msi1|FALSE|bound_elsewhere (ssRNA)
RNA: GGGAGUUCUACAGUCCGACGAUCUUAAGUUCAGGCCACUUUUCUGUCUUUUAUUUGGUUACUGUUGUUAUUUGUUUUUAAGUUAGGAUGCUUUUUAACAGCCUUUAGAAGCCGCUGCUGAAAUUGAUACUGGGGGAAGGGUUCCAACAGAGGAUUGAGCAUCA
B8: chr5:136988535:136988636:-|CDS|ENSG00000152377|msi1|FALSE|unique (ssRNA)
RNA: GGGAGUUCUACAGUCCGACGAUCGGAAAGCAUCAGGCUUGGUGGCAGCUGAGAUAUGCCUUUUGUUUGGCAGGGUUUGACACUAGCAUCCUGCCCAUCUGCAAGGACUCCCUGGGCUGGAUGUUCAACAAGUUGGACAUGAACCAACAGAGGAUUGAGCAUCA
B9: chr1:20652278:20652361:-|3pUTR|ENSG00000244038|msi1_unk|total|mutant (ssRNA)
RNA: GGGAGUUCUACAGUCCGACGAUCGACUGAGGGGCCCGAGCCCUCUCCGCACAGCGUGGAGACGGGGCAAGGAGGGGGGUUAUCCGGAUUGGUGGUUUUGUUUUGCUUUGUUUAAAGCCGUGGGAAAAUGGCACAACUUUACCUCAACAGAGGAUUGAGCAUCA
B10: ENSG00000107863:be:win_1801|CDS|ENSG00000107863|bound_else_gene|NA|bound_elsewhere_windowed (ssRNA)
RNA: GGGAGUUCUACAGUCCGACGAUCACUACUUGUGGAAUGUCACUGCCUCGGGGUAUUUCACAAGACAGGUCACCUCUUGUGAAAGUCCGAAGUAAUUCUCUGAAAGCUCCUUCCACGCAUGUCACAAAACCAUCAUUUAGCCAGCAACAGAGGAUUGAGCAUCA
B11: chr3:130733575:130733676:-|CDS|ENSG00000196455|msi1|total|mutant (ssRNA)
RNA: GGGAGUUCUACAGUCCGACGAUCCGUCAAAGAGGUUCCUCGUAAUGAUAUCAAUAUUUAUCCGGAAUACAUUCUGCCAGGCACCGCCCACUCCGCCCAAGAUGAUGCUACUAUCGUCCGACCCGCCUAUGCUGGUAAGAGUUUCAACAGAGGAUUGAGCAUCA
B12: chr1:248623556:248626177:-|three_prime_utr|ENSG00000279301|control|control|control (ssRNA)
RNA: GGGAGUUCUACAGUCCGACGAUCUGCAGAGAUCUUUCAGUGAAGUAUCAAAAAUGGUUUAUUAUGAAGUUAAAUAAUUUAUCUAGUCUUUUUAUUUAGGGAAGAAAAACCCCAAAUAUUAGAGUUCACAGCAACCUUUCACUCCAACAGAGGAUUGAGCAUCA
B13: chr1:42926584:42926685:-|3pUTR|ENSG00000117394|msi1|total|mutant (ssRNA)
RNA: GGGAGUUCUACAGUCCGACGAUCGCCUGAGGGUGGAGACUAAGCCCUGUCGAGACACUUGCCUUCUUCACCCAGCUAAUCUGCCGGGCUGGACCUAUGUCCUAAGGACACACUAAUCGAACUAUGAACUACAAAGCUUCUAUCCAACAGAGGAUUGAGCAUCA
B14: chr8:73046310:73046411:+|3pUTR|ENSG00000147601|msi1|total|mutant (ssRNA)
RNA: GGGAGUUCUACAGUCCGACGAUCUUGUAUUCUUUAAGAACCUUAUUUUGAUAAAAUGUAAAUUUGUUGAACCCUGCCACAUUCCGUAUCCCCACCCCCAAAUCCUGUUCCAAUGAAAAAAUUAAAACCUGAUACGAAAAAAAACAACAGAGGAUUGAGCAUCA

biological target: T1, UNK ZnF1-6 (called full-length) (human, UniProt Q9C0B0 30-357); assay: nsRBNS (natural sequence RNA bind-n-seq); RBNS binding buffer (assumed for nsRBNS): 25 mM Tris pH 7.5, 150 mM KCl, 3 mM MgCl2, 0.01% Triton X-100, 500 ug/ml BSA, 20 U/ml SUPERase-In, 4 C; UNK is unkempt and MSI1 is Musashi-1; names of the RNAs are library labels; protein concentration not given here; high values mean tight binding
T1 sequence: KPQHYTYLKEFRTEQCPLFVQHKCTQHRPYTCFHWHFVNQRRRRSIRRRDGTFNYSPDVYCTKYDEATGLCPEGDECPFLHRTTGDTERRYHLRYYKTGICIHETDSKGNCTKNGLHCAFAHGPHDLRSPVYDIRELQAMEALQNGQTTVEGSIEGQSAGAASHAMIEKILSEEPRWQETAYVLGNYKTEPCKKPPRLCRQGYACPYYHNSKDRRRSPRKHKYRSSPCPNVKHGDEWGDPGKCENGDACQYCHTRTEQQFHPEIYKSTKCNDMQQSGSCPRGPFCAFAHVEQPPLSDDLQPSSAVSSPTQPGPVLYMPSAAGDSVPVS

Binder	binding signal
B1	0.744 enrichment R
B2	0.282 enrichment R
B3	0.515 enrichment R
B4	0.709 enrichment R
B5	0.496 enrichment R
B6	0.786 enrichment R
B7	1.21 enrichment R
B8	0.8 enrichment R
B9	0.793 enrichment R
B10	0.572 enrichment R
B11	0.841 enrichment R
B12	1.49 enrichment R
B13	0.632 enrichment R
B14	1.37 enrichment R
